cAMP reporter score and surface expression score data for 31 variants are collected here from the GPR68 mutational scans of Howard et al. (2025).

The least precise scores are not listed. Two further conditions of the source, in which the scores hardly spread, are not listed. Names with del lack the residues named; names with ins carry added residues between the positions named. For some of these results: The data file names ogerin without a concentration.

The chains are these.
B1: GPR68, Q15743 (parent)
chain: MGNITADNSSMSCTIDHTIHQTLAPVVYVTVLVVGFPANCLSLYFGYLQIKARNELGVYLCNLTVADLFYICSLPFWLQYVLQHDNWSHGDLSCQVCGILLYENIYISVGFLCCISVDRYLAVAHPFRFHQFRTLKAAVGVSVVIWAKELLTSIYFLMHEEVIEDENQHRVCFEHYPIQAWQRAINYYRFLVGFLFPICLLLASYQGILRAVRRSHGTQKSRKDQIQRLVLSTVVIFLACFLPYHVLLLVRSVWEASCDFAKGVFNAYHFSLLLTSFNCVADPVLYCFVSETTHRDLARLRGACLAFLTCSRTGRAREAYPLGAPEASGKSGAQGEEPELLTKLHPAFQTPNSPGSGGFPTGRLA

In data set [1] the parent is B1. Description: cAMP reporter score (Enrich2 score, wild type = 0); higher = more signal; HEK293T, FACS bins.
The variants in data set [2] derive from B1. Description: surface expression score (Enrich2 score, wild type = 0); higher = more signal; HEK293T, FACS bins.

On to A261T, for which the cAMP reporter score in data set [1] (pH 5.5) was 0.873; in data set [1] (pH 6) it was -0.765; in data set [1] (pH 6, modulator: ogerin) it was -0.253; in data set [1] (pH 6.5, modulator: ogerin), -0.989. Moreover, the surface expression score in data set [2] is 1.11.

On to A261C, for which the cAMP reporter score in data set [1] (pH 5.5) was -0.343; in data set [1] (pH 6) it was -0.706; in data set [1] (pH 6, modulator: ogerin), -0.768; in data set [1] (pH 6.5, modulator: ogerin), -1.3. Moreover, the surface expression score in data set [2] was -0.055.

Take A261V: the cAMP reporter score was -0.012 in data set [1] (pH 5.5); -0.436 in data set [1] (pH 6); 0.528 in data set [1] (pH 6, modulator: ogerin).

For the variant A261E, the cAMP reporter score in data set [1] (pH 5.5) is 0.059; in data set [1] (pH 6), -0.703; in data set [1] (pH 6.5, modulator: ogerin), -1.06. For the same variant, the surface expression score in data set [2] was -0.541.

With A261Q, the cAMP reporter score in data set [1] (pH 5.5) is -0.906; in data set [1] (pH 6), -0.856; in data set [1] (pH 6, modulator: ogerin) it was -0.5; in data set [1] (pH 6.5, modulator: ogerin), -0.804. Moreover, the surface expression score in data set [2] is 1.84.

Turning to A261M, the cAMP reporter score in data set [1] (pH 5.5) is -1.7; in data set [1] (pH 6), -1.35; in data set [1] (pH 6, modulator: ogerin) it was -0.601. Further, the surface expression score in data set [2] was 0.162.

Regarding G263_F265del, the cAMP reporter score in data set [1] (pH 5.5) was 0.011; in data set [1] (pH 6) it was -0.279; in data set [1] (pH 6, modulator: ogerin), -0.28; in data set [1] (pH 6.5, modulator: ogerin), 0.541. Besides, the surface expression score in data set [2] was -1.02.

With F260_A261insGS, the cAMP reporter score in data set [1] (pH 5.5) was -1.11; in data set [1] (pH 6), -2.17; in data set [1] (pH 6, modulator: ogerin), -2.11; in data set [1] (pH 6.5, modulator: ogerin), -1.11. Also, the surface expression score in data set [2] was -0.954.

Consider K262E, for which the cAMP reporter score in data set [1] (pH 5.5) stood at 0.879; in data set [1] (pH 6, modulator: ogerin), 0.97; in data set [1] (pH 6.5, modulator: ogerin) it was 0.838. In data set [2], the surface expression score was -0.355.

Regarding K262M, the cAMP reporter score is 0.544 in data set [1] (pH 5.5); 0.512 in data set [1] (pH 6); 0.643 in data set [1] (pH 6, modulator: ogerin); -0.28 in data set [1] (pH 6.5, modulator: ogerin). Also, in data set [2], the surface expression score is -0.067.

Regarding K262Y, the cAMP reporter score is -0.08 in data set [1] (pH 5.5); -0.281 in data set [1] (pH 6); 0.546 in data set [1] (pH 6, modulator: ogerin); 0.301 in data set [1] (pH 6.5, modulator: ogerin). Moreover, the surface expression score in data set [2] is -1.15.

For the variant K262H, the cAMP reporter score is -0.809 in data set [1] (pH 5.5); -0.31 in data set [1] (pH 6); -0.613 in data set [1] (pH 6, modulator: ogerin); -0.917 in data set [1] (pH 6.5, modulator: ogerin). The surface expression score in data set [2] was -0.941.

Regarding K262P, the cAMP reporter score was -0.543 in data set [1] (pH 5.5); -0.975 in data set [1] (pH 6); -1.42 in data set [1] (pH 6, modulator: ogerin); -0.65 in data set [1] (pH 6.5, modulator: ogerin). Moreover, the surface expression score in data set [2] worked out at 2.13.

For the variant K262L, the cAMP reporter score in data set [1] (pH 5.5) was 0.75; in data set [1] (pH 6), -0.151; in data set [1] (pH 6, modulator: ogerin) it was 0.743; in data set [1] (pH 6.5, modulator: ogerin) it was -0.498. In addition, the surface expression score in data set [2] is 0.091.

Take K262S: the cAMP reporter score was 0.043 in data set [1] (pH 5.5); 1 in data set [1] (pH 6); 0.476 in data set [1] (pH 6, modulator: ogerin); 1.92 in data set [1] (pH 6.5, modulator: ogerin). Also, the surface expression score in data set [2] amounted to 0.372.

In the case of K262G, the cAMP reporter score stood at 0.758 in data set [1] (pH 5.5); 0.331 in data set [1] (pH 6); 0.229 in data set [1] (pH 6, modulator: ogerin); 0.277 in data set [1] (pH 6.5, modulator: ogerin). In addition, the surface expression score in data set [2] came to 0.588.

Turning to K262D, the cAMP reporter score amounted to 0.762 in data set [1] (pH 5.5); 0.057 in data set [1] (pH 6); 0.854 in data set [1] (pH 6, modulator: ogerin); 0.169 in data set [1] (pH 6.5, modulator: ogerin). The surface expression score in data set [2] was -0.615.

In the case of K262W, the cAMP reporter score is 1.11 in data set [1] (pH 5.5); -0.243 in data set [1] (pH 6); 1.39 in data set [1] (pH 6, modulator: ogerin); 0.105 in data set [1] (pH 6.5, modulator: ogerin). Also, the surface expression score in data set [2] came to 0.669.

With K262N, the cAMP reporter score in data set [1] (pH 5.5) is 0.077; in data set [1] (pH 6) it was -0.572; in data set [1] (pH 6, modulator: ogerin), -0.27; in data set [1] (pH 6.5, modulator: ogerin), -0.619. Moreover, the surface expression score in data set [2] worked out at 0.036.

With K262I, the cAMP reporter score is -0.112 in data set [1] (pH 5.5); -0.043 in data set [1] (pH 6); -0.167 in data set [1] (pH 6, modulator: ogerin); -0.028 in data set [1] (pH 6.5, modulator: ogerin). The surface expression score in data set [2] is -0.173.

As for K262F, the cAMP reporter score in data set [1] (pH 5.5) was -0.008; in data set [1] (pH 6) it was 0.336; in data set [1] (pH 6, modulator: ogerin), -0.252; in data set [1] (pH 6.5, modulator: ogerin), -1.06. Also, the surface expression score in data set [2] was -1.28.

As for K262C, the cAMP reporter score was -0.543 in data set [1] (pH 5.5); -1.08 in data set [1] (pH 6); -0.451 in data set [1] (pH 6, modulator: ogerin); -0.045 in data set [1] (pH 6.5, modulator: ogerin). Further, the surface expression score in data set [2] is -1.97.

With K262Q, the cAMP reporter score in data set [1] (pH 5.5) is -0.052; in data set [1] (pH 6), -0.562; in data set [1] (pH 6, modulator: ogerin), 0.219; in data set [1] (pH 6.5, modulator: ogerin) it was -0.523. Also, in data set [2], the surface expression score amounted to 1.24.

On to K262V, for which the cAMP reporter score in data set [1] (pH 5.5) came to 1.43; in data set [1] (pH 6), 2.32; in data set [1] (pH 6, modulator: ogerin) it was 0.606. For the same variant, the surface expression score in data set [2] amounted to 1.43.

Take K262R: the cAMP reporter score was determined as 0.388 in data set [1] (pH 5.5); 0.652 in data set [1] (pH 6); 0.809 in data set [1] (pH 6, modulator: ogerin); 1.03 in data set [1] (pH 6.5, modulator: ogerin). The surface expression score in data set [2] is -0.064.

Turning to K262A, the cAMP reporter score in data set [1] (pH 5.5) came out at 0.907; in data set [1] (pH 6) it was 0.83; in data set [1] (pH 6, modulator: ogerin), 0.154; in data set [1] (pH 6.5, modulator: ogerin), 0.421. In data set [2], the surface expression score amounted to 0.414.

Take V264_F265insG: the cAMP reporter score in data set [1] (pH 5.5) was -0.732; in data set [1] (pH 6), -0.314; in data set [1] (pH 6, modulator: ogerin), -0.525; in data set [1] (pH 6.5, modulator: ogerin) it was -0.477. Further, the surface expression score in data set [2] is -1.9.

On to A261_K262del, for which the cAMP reporter score in data set [1] (pH 5.5) was -1.34; in data set [1] (pH 6) it was -0.209; in data set [1] (pH 6.5, modulator: ogerin), -0.144. Further, the surface expression score in data set [2] amounted to 0.053.

For the variant A261_K262insGS, the cAMP reporter score in data set [1] (pH 5.5) is -1.25; in data set [1] (pH 6) it was -0.845; in data set [1] (pH 6, modulator: ogerin), -1.13; in data set [1] (pH 6.5, modulator: ogerin), -1.32. Further, the surface expression score in data set [2] was -1.05.

With G263_V264insGS, the cAMP reporter score is -0.597 in data set [1] (pH 5.5); -1.07 in data set [1] (pH 6); -1.88 in data set [1] (pH 6, modulator: ogerin); -1.26 in data set [1] (pH 6.5, modulator: ogerin). In data set [2], the surface expression score was -0.352.

For G263_V264insGSG, the cAMP reporter score was -1.59 in data set [1] (pH 5.5); -1.28 in data set [1] (pH 6); -1.95 in data set [1] (pH 6, modulator: ogerin); -1.62 in data set [1] (pH 6.5, modulator: ogerin). Further, the surface expression score in data set [2] was -1.81.
